From PubChem BioAssay AID463173 (ICCB-Longwood Screening Facility, Harvard Medical School, 2010) come the findings set out here.

Molecules are shown by their SMILES. Out of some 52,000 compounds screened, about 4,300 (8.3%) were called active. No stated cut-off is given here; in the data, active means survival mostly below about 52% (no sharp cut-off); inactive means mostly above about 56%. This is one part of the list.

For the assay, the system named is DeltatarO mutant. In words: growth inhibition of S. aureus wild type versus tarO mutant, primary screen, teichoic acid synthesis inhibitors, RN4220, OD600 (AID 463173). As to conditions: OD600, 18 h, hits give low values, screened at 18.75 µg/mL (by protocol).
`Cc1ccc(Cn2c(SCc3ccc(C(=O)N4CCCCC4)cc3)nc3ccncc32)cc1`: the survival is active: 7%. In the case of `CCc1ccccc1N1C(=O)CN(S(=O)(=O)CC)CC1(C)C(=O)NC1CCCCC1` (stereo not drawn), the survival was inactive: 102%. The value for `CCc1ccccc1NC(=O)Cn1nc(CC)n2c(cc3sccc32)c1=O` was inactive: 85%; that for `CCOc1ccccc1NC(=O)Nc1nnc(N2CCCC(C)C2)s1` (stereo not drawn) was inactive: 86%. The result for `O=C(c1ccc(Cl)cc1)N1CCN(CCc2ccncc2)CC1` reads inactive: 103%; that for `Cc1ccc(Cl)cc1N1CCN(S(=O)(=O)c2cn(C)c(C)n2)CC1`, inactive: 57%. The result for `CCOc1ccccc1C1C(C(=O)Nc2ccccc2)=C(C)Nc2nc(SCC(=O)c3ccc(C)cc3)nn21` (stereo not drawn) reads inactive: 77%. `CC1CCCCN1CCCNC(=O)CN1C(=O)c2cccnc2Oc2ccc(Cl)cc21` (stereo not drawn): the survival is inactive: 98%. The result for `COc1ccc(C(=O)c2sc3nc4c(c(C(F)(F)F)c3c2N)CN(C(C)=O)CC4)cc1OC` reads inactive: 77%; that for `CN(C(=O)CSc1nc(-c2ccccc2)no1)c1ccc(F)cc1`, inactive: 96%; that for `CCc1ccc(NC(=O)CSc2nc3c(c(=O)[nH]2)CN(Cc2ccc4c(c2)OCO4)CC3)cc1`, inactive: 74%. The result for `Fc1ccc(C(c2nnnn2C2CCCC2)N2CCc3ccccc32)cc1` (stereo not drawn) reads inactive: 79%; that for `CN(C)N=Nc1ccc(-c2cn(Cc3ccccc3)cn2)cc1`, inactive: 68%; that for `N#Cc1ccc(N2CCCCC2)cc1`, inactive: 95%. The result for `O=C(COc1ccccc1)NCC(c1ccc(Cl)cc1)N1CCCCC1` (stereo not drawn) reads inactive: 77%. With `O=C(CCCc1ccccc1)NC1CC(=O)N(c2cccc(F)c2)C1` (stereo not drawn), the survival is inactive: 120%. The value for `Cc1ccc(C)c(N2CCN(S(=O)(=O)c3c(C(=O)N4CCC(C)CC4)c(C)n(C)c3C)CC2)c1` was inactive: 94%; that for `CCOC(=O)c1cc2c(=O)n3ccccc3nc2n(C)c1=NC(=O)c1c(-c2c(F)cccc2Cl)noc1C` was inactive: 182%; that for `O=C(Nc1ccc(Br)c(Cl)c1)c1ccc(C(=O)Nc2ccc(Br)c(Cl)c2)cc1` was inactive: 135%. On to `CCOc1ccc(CNC(=O)C2CCN(C(=O)c3ccc(-n4ccc5ccccc54)s3)CC2)cc1`, for which the survival is inactive: 115%. The value for `Cc1cccc(NC(=O)Cn2c(=O)n(CCCCCC(=O)NCc3ccccc3)c(=O)c3sccc32)c1` was inactive: 62%. `O=C(NCc1ccccc1Cl)c1ccccc1NC(=O)c1nsc2ccccc12`: the survival is inactive: 76%. The value for `COc1cc(OC)c(NC(=O)c2cnn(-c3ccccc3)c2-n2cccc2)cc1Cl` was inactive: 84%. With `CCOc1cc(-c2nc(-c3ccc(-c4ccccc4)nc3OCC)no2)cc(OCC)c1OCC`, the survival was inactive: 53%.

Take `COCCCNC(=O)c1cc2c(-c3cccc(OC)c3)nn(C)c2s1`: the survival was inactive: 68%.

Take `O=C(CSc1nccn1Cc1ccc(Cl)cc1)Nc1nc2ccccc2s1`: the survival is active: 32%. The value for `CCC(=O)N1CCc2cc(Br)cc(S(=O)(=O)Nc3ccccc3C(=O)OC)c21` was inactive: 135%; that for `COc1ccc(N2CCN(C(=O)c3cc4c(=O)n(Cc5ccco5)ccc4nc3C)CC2)cc1` was inactive: 73%. The result for `Cc1ccccc1CCNC(=O)c1ccc(Cn2c(=O)c3cccn3c3cccnc32)cc1` reads inactive: 64%. The value for `CCc1ccc(NC(=O)c2cc(S(=O)(=O)N3CCCC(C)C3)cn2C)cc1` (stereo not drawn) was inactive: 76%; that for `COc1ccccc1CNC(=O)C(=O)NCC(c1ccco1)S(=O)(=O)c1ccc(C)cc1` (stereo not drawn) was inactive: 88%. As to `COC(=O)C1=C(C)N(C(C)C)C(=O)C1(NC(=O)c1ccccc1OC)C(F)(F)F` (stereo not drawn), the survival was inactive: 76%. The result for `CCCCCn1c(CCCNC(=O)c2ccc(Cl)cc2)nc2ccccc21` reads inactive: 85%. For the compound `COc1ccc(-c2nc(C(=O)Nc3cccc(C(C)=O)c3)nn2-c2ccccc2Cl)cc1`, the survival was inactive: 59%. The result for `COc1ccc(CNC(=O)CCc2nnc3n(C)c(=O)c4sccc4n23)cc1` reads inactive: 180%. The result for `CCn1c(SCC(=O)Nc2c(C)cccc2C)nnc1-c1nonc1NC(C)=O` reads inactive: 121%; that for `O=C(NCCC1=CCCCC1)c1ccc2c(c1)N(Cc1ccccc1)C(=O)c1ccccc1S2=O` (stereo not drawn), inactive: 70%; that for `CCOC(=O)c1[nH]c(=O)[nH]c1CSC(=N)N`, inactive: 88%.

`CN(C)C(=O)C1Cc2ccccc2CN1S(=O)(=O)c1ccc(F)cc1` (stereo not drawn): the survival was inactive: 116%. The value for `COc1ccc(CCN(Cc2cc3cc(C)ccc3[nH]c2=O)C(=O)N2CCCC2)cc1OC` was inactive: 82%; that for `Cc1ccc(C(=O)N2CCCCC2CCN2CCCCC2)cc1` (stereo not drawn) was inactive: 76%; that for `CCOC(=O)c1c(NC(=O)c2ccc(S(=O)(=O)N(CC)CC)cc2)sc2c1CCCCC2` was inactive: 72%. As for `O=C(Nc1cccc(C(F)(F)F)c1)Nc1ccc2snnc2c1`, the survival was active: 11%. The result for `CCc1nn(CC(=O)NCCOC)c(=O)c2cc3cc(F)ccc3n12` reads inactive: 111%; that for `Cc1cc(S(=O)(=O)Nc2ccc(O)c(Sc3nc4ccccc4s3)c2)ccc1Cl`, active: -1%. The result for `CCOC(=O)c1ccc(Nc2nc3nonc3nc2NCc2ccco2)cc1` reads active: 5%. The value for `CN(C)c1ccc(C(CNS(=O)(=O)c2ccc(F)cc2F)N2CCOCC2)cc1` (stereo not drawn) was inactive: 69%; that for `CCc1ccc(CN(Cc2cn[nH]c2-c2ccc(OC)cc2)C(=O)Nc2ccc(Br)cc2)cc1` was inactive: 85%; that for `CCN(CC)C(=O)CSc1nc2cc3c(cc2c(=O)n1CCCC(=O)NCc1ccc(OC)cc1)OCO3` was inactive: 71%. In the case of `CCN(CCCNC(=O)c1nn(-c2ccc(OC)c(Cl)c2)c(=O)c2c1c1ccccc1n2C)c1ccccc1`, the survival is inactive: 83%. The result for `Cc1ccc(-c2csc(C(C#N)=C3CCCC3)n2)cc1` reads inactive: 88%; that for `CC1(C)OC(=O)CC1C(=O)O` (stereo not drawn), inactive: 75%. The result for `CC1CCN(C(=O)Cn2c(SCC(=O)Nc3ccc(F)cc3)nc3ccccc32)CC1` reads inactive: 96%. Regarding `COc1ccc(OC)c(CNC(=O)CSc2c3c(nc4cc(Cl)ccc24)CCCC3)c1`, the survival is inactive: 68%.

On to `O=C(O)c1ccc2c3c(ncnc13)-c1ccccc1C2=O`, for which the survival is inactive: 58%. The value for `COc1ccc(-c2csc(-c3c(N)c(C(=O)c4ccccc4)n4ccccc34)n2)cc1OC` was active: 43%; that for `CCS(=O)(=O)c1cccc(C(=O)Nc2ccc(-c3nc4ccccc4s3)c(O)c2)c1` was inactive: 85%; that for `Cc1cccc(NC(=O)Cn2c(=O)c3cccn3c3ccccc32)c1C` was active: 43%. The value for `COc1cc(NS(=O)(=O)c2cc(Br)cc3c2N(C(=O)C2CC2)CC3)cc(OC)c1` was inactive: 99%; that for `CCNC(=S)N1CCN(c2ccccc2)CC1` was inactive: 98%.

As for `COc1ccccc1N1CCN(C(=O)CSc2nc3ccccc3nc2Cc2ccc(C)cc2)CC1`, the survival was inactive: 55%. The result for `CNc1nc2c(c(=O)n(C)c(=O)n2C)n1CC(O)COc1ccc(OC)cc1` (stereo not drawn) reads inactive: 67%; that for `CCCSc1nc2sc3c(c2c(=O)n1-c1ccc(C)c(Cl)c1)CCN(C(C)=O)C3`, inactive: 81%.

Regarding `CN(C(=O)c1cc2nc(-c3ccc4c(c3)OCO4)cc(C(F)(F)F)n2n1)c1ccc(OC(F)(F)F)cc1`, the survival is inactive: 60%. In the case of `Cn1nc(C(=O)NCCc2ccc(Cl)cc2)c2c1-c1ccccc1SC2`, the survival was inactive: 69%. The value for `COc1cccc(C(=O)NC2CC3CCCC(C2)N3CC(=O)Nc2ccc(N(C)C)cc2)c1` (stereo not drawn) was inactive: 89%; that for `CCOC(=O)C1=C(CN2CCN(C)CC2)NC(=O)NC1c1ccc(F)cc1` (stereo not drawn) was inactive: 79%. The result for `CC(C)c1ccc(OCC(=O)NCC(c2ccc(Cl)cc2)N2CCOCC2)cc1` (stereo not drawn) reads inactive: 67%. The value for `CC(C)NC(=O)C1CCN(C(=O)c2cnn(-c3ccccc3)c2-n2cccc2)CC1` was inactive: 86%; that for `Cc1nc2c(C(=O)NCCc3ccc(Cl)cc3)cnn2c(C)c1Cc1ccc(F)cc1` was inactive: 69%. Consider `COc1cc(-c2nc(C(N)=O)c3c(n2)n(-c2cccc(C)c2)c(=O)n3C)cc(OC)c1OC`, for which the survival was inactive: 84%. The value for `CCn1c(CN2CCCCC2)nc2cc(NC(=O)c3cccc([N+](=O)[O-])c3)ccc21` was inactive: 91%. The result for `Cc1c(C(=O)Nc2cccc(-c3nc4ccccc4s3)c2)oc2ccc(F)cc12` reads inactive: 51%; that for `Cc1ccc(CNC(=O)c2nn(C)c3c2CSc2ccc(C)cc2-3)cc1`, inactive: 75%. The result for `COC(=O)c1ccccc1NC(=O)c1ccc(=O)n(Cc2cccc(C)c2)c1` reads inactive: 74%.

`Cc1ccc(CCNC(=O)CSCc2nc(-c3ccc(C)cc3)oc2C)cc1`: the survival was active: 26%.

On to `N#Cc1cccc(NC(=O)C2CCN(c3nc(-c4ccc(Cl)cc4)no3)CC2)c1`, for which the survival is inactive: 82%.

Take `CCOc1ccc(-c2nnc(SCC(=O)Nc3cc(C)ccc3OC)o2)cc1`: the survival was inactive: 57%. The value for `CC(C)c1ccc(NC(=O)Cn2c3ncccc3c(=O)n2-c2ccccc2)cc1` was inactive: 80%.

With `CSc1nnc2n(-c3cccc(C)c3)c(=O)c3c4c(sc3n12)CCCC4`, the survival was inactive: 66%. Take `CCOC(=O)C1C(=O)C=C(c2ccc(NS(C)(=O)=O)cc2)CC1c1ccco1` (stereo not drawn): the survival was inactive: 89%. The result for `COc1ccc(S(=O)(=O)c2c(O)c(C)cc(NC(=O)c3ccccc3)c2C(C)C)cc1` reads inactive: 80%; that for `COc1ccccc1N1CCN(C(=O)c2ccc(Nc3nc4ccccc4n4nnnc34)cc2)CC1`, inactive: 59%; that for `CCn1c(=O)n(CC)c2cc(N3CCCC3)c(NC(=O)Nc3cc(C)cc(C)c3)cc21`, inactive: 91%. The value for `Cc1cccn2c(=O)cc(COc3cccc(NC(=O)c4cccc(Cl)c4)c3)nc12` was inactive: 124%; that for `O=C(Nc1ccccc1F)c1oc2ccccc2c1NC(=O)c1c(F)cccc1F` was active: 26%.

`Cc1cccc(-c2nnc(SCC(=O)N3CCCCC3)o2)c1`: the survival was inactive: 109%. The result for `Cc1ccc(CSC2=Nc3ccccc3C3=NC(CC(=O)NCc4ccc5c(c4)OCO5)C(=O)N23)cc1` (stereo not drawn) reads inactive: 78%.
